The values below come from the antibiotic and cytotoxicity screens of Wong et al. (2023).

Some of the results follow.

The test system of one test is HSkMC. The experiment in a line: cytotoxicity call (relative viability < 0.9). As to conditions: 10 µM.
Another test concerns HepG2. Put plainly: cytotoxicity call (relative viability < 0.9). As to conditions: 10 µM.
Another test deals with S. aureus RN4220. Put plainly: growth inhibition call (relative growth <= 0.2). As to conditions: 50 µM.

With `C[C@@H]1CN([C@H](C)CO)S(=O)(=O)c2ccc(C#CCC3CCCC3)cc2O[C@H]1CN(C)C(=O)c1cnccn1`, the cytotoxicity call with HSkMC and in the test on HepG2 was “inactive” throughout. Also, the growth inhibition call in the test with S. aureus RN4220 was “inactive”.

Take `Cc1ccc(S(=O)(=O)N(C)C[C@H]2Oc3ccc(NS(=O)(=O)c4cn(C)cn4)cc3C(=O)N([C@H](C)CO)C[C@@H]2C)cc1`: the cytotoxicity call in the test on HSkMC and in the test with HepG2 was “inactive” throughout. For the same compound, the growth inhibition call in the test with S. aureus RN4220 is “inactive”.

Turning to `CC(C)(C)NCCCCOc1ccc(Cl)cc1C(C)(C)C`, the cytotoxicity call in the test with HSkMC is “inactive”. In addition, the cytotoxicity call in the test on HepG2 is “active”. Further, in the test with S. aureus RN4220, the growth inhibition call is “inactive”.

Consider `C[C@H]1CN([C@@H](C)CO)S(=O)(=O)c2ccc(C#CCN(C)C)cc2O[C@H]1CN(C)Cc1ccncc1`, for which the cytotoxicity call with HSkMC and with HepG2 was “inactive” in each case. For the same compound, the growth inhibition call with S. aureus RN4220 is “inactive”.

Consider `COc1ccc(CN(C)C[C@H]2OCCCC[C@@H](C)Oc3ccc(NS(=O)(=O)c4cccs4)cc3C(=O)N([C@@H](C)CO)C[C@H]2C)cc1`, for which the cytotoxicity call in the test on HSkMC and in the test with HepG2 was “inactive” in each case. In addition, the growth inhibition call with S. aureus RN4220 was “inactive”.

With `CNC[C@H]1OCCCC[C@@H](C)Oc2ccc(NS(=O)(=O)c3cn(C)cn3)cc2C(=O)N([C@H](C)CO)C[C@H]1C`, the cytotoxicity call with HSkMC and with HepG2 was “inactive” each time. In addition, the growth inhibition call in the test on S. aureus RN4220 was “inactive”.

`Cc1noc(C)c1NC(=O)Nc1cccc2c1O[C@@H](CN(C)Cc1ccc(C(=O)Nc3ccccc3N)cc1)[C@@H](C)CN([C@@H](C)CO)C2=O`: the cytotoxicity call in the test on HSkMC and in the test with HepG2 was “inactive” in each case. Also, the growth inhibition call in the test on S. aureus RN4220 was “inactive”.

With `COc1ccccc1C#Cc1cnc2c(c1)C(=O)N([C@@H](C)CO)C[C@H](C)[C@H](CN(C)S(=O)(=O)c1cn(C)cn1)O2`, the cytotoxicity call in the test on HSkMC and in the test with HepG2 was “inactive” throughout. Moreover, in the test with S. aureus RN4220, the growth inhibition call is “inactive”.

Consider `C[C@H]1CCCCO[C@H](CN(C)C(=O)Nc2ccccc2)[C@@H](C)CN([C@@H](C)CO)C(=O)c2cc(NC(=O)Nc3ccc(C(F)(F)F)cc3)ccc2O1`, for which the cytotoxicity call with HSkMC and with HepG2 was “inactive” each time. For the same compound, the growth inhibition call in the test on S. aureus RN4220 was “inactive”.

Consider `COc1ccc(NC(=O)N(C)C[C@H]2OCCCC[C@@H](C)Oc3ccc(NS(=O)(=O)c4ccc(F)cc4)cc3C(=O)N([C@H](C)CO)C[C@H]2C)cc1`, for which the cytotoxicity call with HSkMC and with HepG2 was “inactive” in each case. The growth inhibition call with S. aureus RN4220 is “inactive”.

`C[C@@H]1CCCCO[C@H](CN(C)Cc2ccc3c(c2)OCO3)[C@@H](C)CN([C@@H](C)CO)C(=O)c2cc(NS(=O)(=O)c3ccc(Cl)cc3)ccc2O1`: the cytotoxicity call in the test on HSkMC and with HepG2 was “inactive” throughout. In addition, the growth inhibition call in the test on S. aureus RN4220 was “inactive”.

On to `Cc1ccnc(=O)[nH]1`, for which the cytotoxicity call with HSkMC and in the test with HepG2 was “inactive” each time. Also, the growth inhibition call in the test on S. aureus RN4220 was “inactive”.

On to `Cn1ccc(CO)n1`, for which the cytotoxicity call in the test with HSkMC and in the test with HepG2 was “inactive” each time. Moreover, the growth inhibition call with S. aureus RN4220 is “inactive”.

For the compound `C[C@H](CO)N1C[C@H](C)[C@H](CN(C)S(=O)(=O)c2ccc(Cl)cc2)Oc2c(NC(=O)C3CCOCC3)cccc2C1=O`, the cytotoxicity call in the test with HSkMC and in the test with HepG2 was “inactive” in each case. In addition, the growth inhibition call in the test on S. aureus RN4220 was “inactive”.

As to `CC(C)CC#Cc1cnc2c(c1)C(=O)N([C@@H](C)CO)C[C@@H](C)[C@H](CN(C)S(=O)(=O)c1cccs1)O2`, the cytotoxicity call in the test on HSkMC and in the test on HepG2 was “inactive” throughout. For the same compound, in the test on S. aureus RN4220, the growth inhibition call was “inactive”.

Turning to `Cc1noc(C)c1S(=O)(=O)Nc1cccc2c1O[C@H](CN(C)S(=O)(=O)c1cn(C)cn1)[C@H](C)CN([C@H](C)CO)C2=O`, the cytotoxicity call with HSkMC and with HepG2 was “inactive” in each case. In the test on S. aureus RN4220, the growth inhibition call is “inactive”.

As to `O=C(CCn1ccc(=O)[nH]c1=O)Nc1ccc2c(c1)NC(=O)CO2`, the cytotoxicity call with HSkMC and in the test with HepG2 was “inactive” each time. In addition, the growth inhibition call in the test on S. aureus RN4220 was “inactive”.

`CN1CCN(S(C)(=O)=O)CC1`: the cytotoxicity call in the test with HSkMC and with HepG2 was “inactive” in each case. In the test on S. aureus RN4220, the growth inhibition call was “inactive”.

Turning to `O=C(NC[C@H]1Cn2nncc2CO1)c1ccc[nH]1`, the cytotoxicity call with HSkMC and in the test on HepG2 was “inactive” throughout. In the test on S. aureus RN4220, the growth inhibition call was “inactive”.

As for `COc1ccc2c3c(n(c2c1)C)[C@H](CO)N(Cc1cc(cc(c1)OC)OC)C[C@]13CN(C1)C(=O)NC(C)C`, the cytotoxicity call in the test on HSkMC and in the test on HepG2 was “inactive” throughout. Further, the growth inhibition call in the test with S. aureus RN4220 is “inactive”.

As to `NCC1CCOCC1`, the cytotoxicity call in the test on HSkMC and in the test on HepG2 was “inactive” each time. Moreover, in the test with S. aureus RN4220, the growth inhibition call was “inactive”.

Turning to `COc1ccc(C#Cc2ccc3c(c2)[C@]2(C(=O)N3)[C@H](C(N)=O)[C@H]3C(=O)O[C@H](c4ccccc4)[C@H](c4ccccc4)N3[C@@H]2c2ccc(OCCO)cc2)cc1`, the cytotoxicity call with HSkMC and with HepG2 was “inactive” each time. The growth inhibition call with S. aureus RN4220 was “inactive”.

Take `C[C@H]1CN([C@@H](C)CO)C(=O)c2cc(NC(=O)Cn3cnnn3)ccc2O[C@H]1CN(C)Cc1ccc2c(c1)OCO2`: the cytotoxicity call with HSkMC and in the test with HepG2 was “inactive” in each case. For the same compound, the growth inhibition call in the test on S. aureus RN4220 was “inactive”.

With `NC(=O)CCCCC1CCSS1` (centres undefined), the cytotoxicity call with HSkMC and in the test with HepG2 was “inactive” in each case. Also, the growth inhibition call in the test on S. aureus RN4220 was “inactive”.

In the case of `CCOC(=O)[C@@H](N)Cc1ccccc1`, the cytotoxicity call in the test with HSkMC and in the test on HepG2 was “inactive” throughout. For the same compound, the growth inhibition call in the test with S. aureus RN4220 was “inactive”.

As to `Cc1ccc(S(=O)(=O)Nc2ccc3c(c2)CC(=O)N([C@H](C)CO)C[C@@H](C)[C@@H](CN(C)Cc2ccncc2)O3)cc1`, the cytotoxicity call with HSkMC was “inactive”. Further, in the test on HepG2, the cytotoxicity call was “active”. In addition, the growth inhibition call with S. aureus RN4220 is “inactive”.

In the case of `CC(C)(C)c1nc(-c2cccc(NS(=O)(=O)c3c(F)cccc3F)c2F)c(-c2ccnc(N)n2)s1`, the cytotoxicity call in the test with HSkMC and with HepG2 was “inactive” in each case. Further, the growth inhibition call with S. aureus RN4220 was “inactive”.

Turning to `Cc1noc(C)c1S(=O)(=O)Nc1ccc2c(c1)CC(=O)N([C@@H](C)CO)C[C@H](C)[C@@H](CN(C)Cc1ccc(Oc3ccccc3)cc1)O2`, the cytotoxicity call in the test on HSkMC and in the test on HepG2 was “inactive” each time. Also, the growth inhibition call in the test with S. aureus RN4220 is “inactive”.

`C[C@H]1CN([C@@H](C)CO)C(=O)Cc2cc(NS(=O)(=O)c3cccs3)ccc2O[C@@H]1CN(C)C(=O)Nc1cccc2ccccc12`: the cytotoxicity call in the test on HSkMC and with HepG2 was “inactive” in each case. Also, the growth inhibition call in the test on S. aureus RN4220 is “inactive”.

As to `Cc1noc(C)c1S(=O)(=O)N(C)C[C@H]1Oc2ccc(NC(=O)CCN3CCOCC3)cc2C(=O)N([C@@H](C)CO)C[C@H]1C`, the cytotoxicity call with HSkMC and in the test on HepG2 was “inactive” throughout. In addition, the growth inhibition call in the test with S. aureus RN4220 was “inactive”.

As for `COc1ccc(CNC(=O)C[C@@H]2C[C@H]3c4cc(NS(=O)(=O)c5ccc(F)cc5)ccc4O[C@H]3[C@@H](CO)O2)cc1`, the cytotoxicity call in the test on HSkMC and in the test on HepG2 was “inactive” each time. Further, the growth inhibition call in the test on S. aureus RN4220 is “inactive”.

As for `C[C@H](CO)N1C[C@H](C)[C@H](CN(C)Cc2ccc(C(F)(F)F)cc2)Oc2c(NC(=O)Nc3ccccc3)cccc2C1=O`, the cytotoxicity call in the test on HSkMC and in the test on HepG2 was “inactive” throughout. The growth inhibition call with S. aureus RN4220 was “inactive”.

As for `C[C@H](CO)N1C[C@H](C)[C@@H](CN(C)C(=O)Nc2ccccc2)Oc2ccc(NC(=O)Nc3cccc4ccccc34)cc2CC1=O`, the cytotoxicity call in the test with HSkMC and in the test on HepG2 was “inactive” throughout. Further, the growth inhibition call in the test with S. aureus RN4220 is “inactive”.

As for `COc1ccc(C2COc3c(ccc(O)c3OC)C2)c(OC)c1O` (centres undefined), the cytotoxicity call with HSkMC and with HepG2 was “inactive” in each case. The growth inhibition call with S. aureus RN4220 was “inactive”.

Consider `COc1cc2ncnc(Oc3cccc(NC(=O)Nc4cc(C(C)(C)C(F)(F)F)on4)c3)c2cc1OC`, for which the cytotoxicity call in the test with HSkMC and with HepG2 was “inactive” in each case. For the same compound, the growth inhibition call with S. aureus RN4220 is “inactive”.

Take `C[C@@H]1CCCCO[C@@H](CN(C)S(=O)(=O)c2ccc(Cl)cc2)[C@H](C)CN([C@H](C)CO)C(=O)c2cc(NS(=O)(=O)c3ccccc3)ccc2O1`: the cytotoxicity call in the test on HSkMC is “inactive”. For the same compound, the cytotoxicity call in the test on HepG2 was “active”. Further, the growth inhibition call in the test on S. aureus RN4220 was “inactive”.

For the compound `COc1ccccc1CN1C(=O)c2ccccc2[C@@]2(Cc3ccccc3N(CC(F)(F)F)C2=O)[C@@H]1c1ccc(CO)cc1`, the cytotoxicity call in the test on HSkMC and with HepG2 was “inactive” each time. For the same compound, the growth inhibition call with S. aureus RN4220 is “inactive”.

Regarding `C[C@@H]1CN([C@H](C)CO)C(=O)c2cc(NS(=O)(=O)c3cn(C)cn3)ccc2O[C@@H]1CN(C)Cc1ccncc1`, the cytotoxicity call in the test on HSkMC and with HepG2 was “inactive” each time. The growth inhibition call with S. aureus RN4220 is “inactive”.

Turning to `CNC(=O)c1cccc(NC(=S)NC)c1`, the cytotoxicity call in the test on HSkMC and in the test on HepG2 was “inactive” in each case. Further, the growth inhibition call in the test on S. aureus RN4220 is “inactive”.

For the compound `CCNC(=O)c1cccc(NS(C)(=O)=O)c1`, the cytotoxicity call with HSkMC and with HepG2 was “inactive” in each case. Moreover, in the test with S. aureus RN4220, the growth inhibition call was “inactive”.

For `Cc1noc(C)c1NC(=O)Nc1ccc2c(c1)C(=O)N([C@H](C)CO)C[C@H](C)[C@H](CN(C)S(=O)(=O)c1ccccc1)OCCCC[C@@H](C)O2`, the cytotoxicity call in the test on HSkMC and with HepG2 was “inactive” each time. The growth inhibition call in the test with S. aureus RN4220 was “inactive”.

For the compound `C[C@@H]1CN([C@@H](C)CO)S(=O)(=O)c2ccc(C#Cc3cccc(F)c3)cc2O[C@H]1CN(C)S(=O)(=O)c1ccccc1F`, the cytotoxicity call in the test on HSkMC and with HepG2 was “inactive” in each case. In addition, the growth inhibition call with S. aureus RN4220 was “inactive”.

For the compound `CCCN(C)C[C@H]1OCCCC[C@H](C)Oc2ccc(NC(=O)C3CCCCC3)cc2C(=O)N([C@H](C)CO)C[C@H]1C`, the cytotoxicity call in the test on HSkMC (human skeletal muscle cells) and in the test on HepG2 was “inactive” each time. For the same compound, in the test with S. aureus RN4220, the growth inhibition call was “inactive”.
